Test results reported in PubChem BioAssay (NCATS).
Values joined by “and” are separate entries in the source; they are usually repeats but may differ in a detail not shown here. Equal entries are not always repeated. The shares of active, inactive and inconclusive entries below differ from those in the screen. Potencies of inconclusive entries are doubtful fits and often do not repeat. Active and inactive are the calls of the source. The call rests on the fitted dose curve; in most records, active means well fitted curve in the direction sought with a large enough effect; inconclusive means small, poorly fitted or top-dose-only effect, or another doubt; inactive means no such curve, though single readings can be large; an effect the other way counts as inactive or inconclusive.

Tested on: not listed separately
Assay: Primary qHTS for inhibitors of nuclear receptor binding SET domain protein 2 (NSD2) in an RCH-ACV wild type WT cells (2C) (AID 1645877); further: nearly all actives have a fitted effect of over 70% in size; on activity change, negative = cell killing: on the % scale 0 is the no-effect control and ±100 the full control effect
Conditions: RCH-ACV (leukaemia line) NSD2 WT (2C) viability, CellTiter-Glo, 72 h; series mostly up to 44.9 µM; activity change, negative = cell killing: at the top concentration
Potency means the concentration at half of the fitted maximal effect; tags describe the fitted curve by direction and shape.

Row | SMILES | Potency | activity change, negative = cell killing | outcome
1 | CCCCCCCCCCCCOCCO | inconclusive: 33.5 µM [inhibitor, single point] |  | 
2 | CC[C@@H](C)[C@H](NC(=O)[C@H](CC1CCCCC1)NC(=O)c1ccno1)C(=O)N1CCC2(CCc3ccccc32)CC1 | inconclusive: 37.2 µM [inhibitor, single point] |  | 
3 | CCOC(=O)N1CCN(/[N+]([O-])=N/Oc2ccc([N+](=O)[O-])cc2[N+](=O)[O-])CC1 | active: 5.9 µM |  | 
4 | NNc1nncc2ccccc12 | inactive and inconclusive: 18.6 µM [inhibitor, partial curve] |  | 
5 | O=C(/C=C/c1ccc(O)cc1)c1ccc(O)cc1O | active: 5.25 µM |  | 
6 | O=C(Nc1ccc(F)c(C(F)(F)F)c1)Nc1nnc(-c2ccncc2)s1 | inconclusive: 8.17 µM [inhibitor, partial curve, poor fit] |  | 
7 | Cc1cn([C@@H]2O[C@H](CO)[C@@H](O)[C@H]2F)c(=O)[nH]c1=O |  | inactive: 9.16% | 
8 | CC(C(=O)O)c1ccc(-c2ccccc2)c(F)c1 (centres undefined) |  | inactive: -11.8% | 
9 | CC1(C)S[C@@H]2[C@H](NC(=O)Cc3ccccc3)C(=O)N2[C@H]1C(=O)O (tested in a mixture with another compound) | inconclusive: 8.41 µM [inhibitor, partial curve] |  | 
10 | CCCCCCCC(=O)[O-].CCCCCCCC(=O)[O-].[Zn+2] |  | inactive: -14.5% | 
11 | CC1(C)S[C@@H]2[C@H](NC(=O)[C@H](N)c3ccccc3)C(=O)N2[C@H]1C(=O)O |  |  | inactive
12 | N#Cc1ccc(NC(=O)Nc2ccccc2Br)c2n[nH]nc12 |  | inactive: 7.31% | 
13 | CCN(CC)CCOc1ccc(/C(=C(\Cl)c2ccccc2)c2ccccc2)cc1 | active: 11.9 µM and active: 5.25 µM |  | 
14 | C=CC(=O)Nc1cc2c(Nc3ccc(F)c(Cl)c3)ncnc2cc1C#CC(C)(C)N1CCN(C)CC1 | active: 2.63 µM |  | 
15 | CCN(CC)CCNC(=O)c1cc(Cl)c(N)cc1OC | inactive |  | 
16 | COc1ncc(-c2ccc3nccc(-c4ccnnc4)c3c2)cc1NS(=O)(=O)c1ccc(F)cc1F | active: 1.2 nM and active: 7.4 nM |  | 
17 | NCCCNCCSP(=O)(O)O |  | inactive: 5.49% [at 9.23 µM] | 
18 | CCCn1c(=O)c2[nH]c(C34CC5CC3C[C@@H](C5)C4)nc2n(CCC)c1=O |  | inactive: -4.09% | 
19 | CN(C)c1ccc2nc3ccc(=[N+](C)C)cc-3sc2c1 | active: 1.32 µM and active: 2.37 µM |  | 
20 | Cn1ccc2cc3c(cc21)CCN3C(=O)Nc1cccnc1 | inconclusive: 14.6 µM [inhibitor, single point] |  | 
21 | CC(C)(C)OC(=O)CN(Cc1ccc(Cl)cc1)Cc1ccc([N+](=O)[O-])s1 | inconclusive: 26.3 µM [inhibitor, single point] |  | 
22 | CCOC(=O)c1ccccc1O |  | inactive: 8.13% | 
23 | CCc1ccc(/C=C2/SC(=S)NC2=O)cc1 | inconclusive: 26.3 µM [inhibitor, partial curve, poor fit] |  | 
24 | CC(=O)Nc1ccc([C@H](C)C(=O)Nc2ncc(C(C)C)s2)cc1 | active: 2.35 µM |  | 
25 | O=c1c(O)c(-c2ccc(O)cc2)oc2cc(O)cc(O)c12 | inconclusive: 26.3 µM [inhibitor, single point] |  | 
26 | COC(=O)Nc1nc2ccc(Sc3ccccc3)cc2[nH]1 | active: 266 nM and active: 372 nM |  | 
27 | CCCCC(CC)COC(=O)C(C#N)=C(c1ccccc1)c1ccccc1 (centres undefined) | inconclusive: 21.1 µM [inhibitor, single point] |  | 
28 | Cc1c(N)c(=O)n(-c2ccccc2)n1C |  | inactive: 1.85% | 

Target: Glutathione peroxidase 1 (Homo sapiens) (UniProt P07203)
UniProt P07203, sequence (P07203 whole entry, looked up): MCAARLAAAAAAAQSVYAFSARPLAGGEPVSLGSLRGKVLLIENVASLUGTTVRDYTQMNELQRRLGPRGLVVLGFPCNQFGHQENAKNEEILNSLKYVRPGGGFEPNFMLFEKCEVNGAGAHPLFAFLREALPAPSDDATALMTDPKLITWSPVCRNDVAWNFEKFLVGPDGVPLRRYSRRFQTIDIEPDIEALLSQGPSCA
Assay: Primary qHTS Assay for Inhibitors of Recombinant Selenoprotein Glutathione Peroxidase 1 (GPX1) (AID 1845191); further: nearly all actives have a fitted effect of over 65% in size
Conditions: recombinant GPX1, GR-coupled NADPH fluorescence, 15 min; activity, negative = inhibition: at 48.8 µM (top of the series); series mostly up to 48.8 µM
Method in brief: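 10 nM GPX1 + cpd, 30 min RT; start w/ 1 mM GSH, 0.5 mM cumene hydroperoxide, 0.5 mM NADPH, 100 nM GR, 0.01% BSA; buffer 50 mM Tris-HCl pH 7.5, 2 mM EDTA, 150 mM NaCl; Fl 340/450, 0 & 15 min.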

Row | SMILES | Potency
29 | COC(=O)C1=C(C)NC(C)=C(C(=O)OCC(C)C)C1c1ccccc1[N+](=O)[O-] (centres undefined) | inconclusive: 22.7 µM [inhibitor, single point]
30 | CNCC[C@H](Oc1cccc2ccccc12)c1cccs1 | inconclusive: 4.04 µM [inhibitor, partial curve, poor fit]
31 | CCN(CC)C(=S)SSC(=S)N(CC)CC | inconclusive: 20.2 µM [inhibitor, single point]

Target: Phospholipid hydroperoxide glutathione peroxidase GPX4 (Homo sapiens) (UniProt P36969)
UniProt P36969, sequence (P36969 whole entry, looked up): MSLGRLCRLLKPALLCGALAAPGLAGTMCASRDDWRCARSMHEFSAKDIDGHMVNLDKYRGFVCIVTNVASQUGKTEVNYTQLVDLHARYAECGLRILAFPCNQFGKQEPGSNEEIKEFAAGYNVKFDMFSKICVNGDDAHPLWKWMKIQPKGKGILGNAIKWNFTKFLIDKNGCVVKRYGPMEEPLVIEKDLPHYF
Assay: Primary qHTS Assay for Inhibitors of Recombinant Selenoprotein Glutathione Peroxidase 4 (GPX4) (AID 1845192); further: nearly all actives have a fitted effect of over 65% in size
Conditions: recombinant GPX4, GR-coupled NADPH fluorescence, 15 min; activity change, negative = inhibition: at 50 µM (top of the series); series mostly up to 50 µM
Method in brief: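 NADPH consumption, followed by fluorescence at 340/450 nm between 0 and 15 min, reports GPX4 activity via coupled glutathione reductase (100 nM). Enzyme 200 nM was pre-exposed to compound 30 min; 0.5 mM cumene hydroperoxide and 1 mM GSH served as substrates.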

Row | SMILES | Potency
32 | COc1cccc(-c2ccc(NC(=O)C3=C(C(=O)O)CCC3)c(F)c2)c1 | inconclusive: 32.1 µM [inhibitor, single point]
33 | COC(=O)C1=C(C)NC(C)=C(C(=O)OCC(C)C)C1c1ccccc1[N+](=O)[O-] (centres undefined) | inconclusive: 31.6 µM [inhibitor, single point]
34 | CCN(CC)C(=S)SSC(=S)N(CC)CC | inconclusive: 14.3 µM [inhibitor, partial curve]
